Test results as given in PMC7904957 (Journal of medical genetics, 2020).

Target: His6-tagged heterodimeric complex composed of TRAPPC3 and TRAPPC6a (human, UniProt O43617; O75865)
Assay: pull-down

B1: GST-tagged TRAPPC2L p.(Asp37Tyr) (natural protein)
chain: not shown
- binding result: binds
